Laboratory results published in PubChem BioAssay AID1645882 (National Center for Advancing Translational Sciences (NCATS), 2021).
Among all 16,000 compounds or so, about 120 (0.75%) were called active. Inconclusive results (about 4%) are left out. The call rests on the fitted dose curve; in most records, active means well fitted inhibition curve with a large enough effect; inconclusive means small, poorly fitted or top-dose-only effect; inactive means no such curve, though single readings can be large or run the other way. The list shows a part of the results.

What follows are molecules tested against Rap guanine nucleotide exchange factor 3 (Homo sapiens) (UniProt O95398) (assay: Validation qHTS for antagonist of cAMP-regulated guanine nucleotide exchange factor 3 (EPAC1)). Details: EPAC1 Rap1B-BODIPY-GDP exchange, fluorescence; series mostly up to 150 µM; activity change, negative = inhibition: at the top concentration.
Chain of UniProt O95398 (O95398 whole entry, looked up): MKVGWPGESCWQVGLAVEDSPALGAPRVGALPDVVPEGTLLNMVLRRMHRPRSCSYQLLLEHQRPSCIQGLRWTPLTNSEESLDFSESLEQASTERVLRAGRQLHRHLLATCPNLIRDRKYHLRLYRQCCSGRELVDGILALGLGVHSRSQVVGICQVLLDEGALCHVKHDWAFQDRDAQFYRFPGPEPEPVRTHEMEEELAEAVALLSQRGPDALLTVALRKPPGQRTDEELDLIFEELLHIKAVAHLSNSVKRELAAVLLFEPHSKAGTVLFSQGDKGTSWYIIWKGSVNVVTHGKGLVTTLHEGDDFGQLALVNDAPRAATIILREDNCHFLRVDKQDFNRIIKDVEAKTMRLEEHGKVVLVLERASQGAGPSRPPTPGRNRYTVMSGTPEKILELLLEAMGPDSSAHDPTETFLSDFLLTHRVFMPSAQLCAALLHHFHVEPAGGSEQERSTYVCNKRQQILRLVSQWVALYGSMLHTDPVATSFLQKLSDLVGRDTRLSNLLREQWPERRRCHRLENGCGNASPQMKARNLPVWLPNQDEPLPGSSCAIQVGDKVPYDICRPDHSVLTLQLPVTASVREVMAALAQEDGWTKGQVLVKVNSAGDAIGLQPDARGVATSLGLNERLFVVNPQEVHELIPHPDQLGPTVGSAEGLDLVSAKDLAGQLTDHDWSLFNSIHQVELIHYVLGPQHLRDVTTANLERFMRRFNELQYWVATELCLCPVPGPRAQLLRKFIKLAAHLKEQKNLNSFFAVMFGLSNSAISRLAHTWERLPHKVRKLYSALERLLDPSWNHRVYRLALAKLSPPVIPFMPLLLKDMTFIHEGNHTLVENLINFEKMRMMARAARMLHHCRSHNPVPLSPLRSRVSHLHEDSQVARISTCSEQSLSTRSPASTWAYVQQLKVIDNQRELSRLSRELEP
From the text: Assay Provider (PI): Xiaodong Cheng Ph.D.
The University of Texas Medical Branch, […], TX
In multi-cellular eukaryotic organisms, the effects of cAMP are transduced by two ubiquitously-expressed intracellular cAMP receptors, the classic protein kinase A/cAMP-dependent protein kinase (PKA/cAPK) and the more recently discovered exchange protein directly activated by cAMP/cAMP-regulated guanine nucleotide exchange factor (EPAC/cAMP-GEF). Both PKA and EPAC are ubiquitously expressed in all tissues, and an increase in intracellular cAMP levels will lead to the activation of both PKA and EPAC. Therefore, careful dissections of the individual role and relative contribution of EPAC and PKA within the overall cAMP signaling in various model systems are critical for further elucidating the mechanism of cAMP signaling. To date no EPAC-specific antagonists and agonist, as well as isoform-specific agonists have been reported, and developing EPAC-specific pharmacological probes to determine the physiological functions that EPAC play in the overall cAMP-mediated signaling remains a major challenge within the research field. Furthermore, identified regulators of EPAC may lead to new mechanism-based therapeutic strategies specifically targeting the EPAC / cAMP-signaling components as EPAC has been implicated to play important roles in major human pathological conditions such as diabetes, heart disease, and cancer.
This qHTS will be used to screen the Molecular Libraries Small Molecule Repository (MLSMR) as a concentration-titration series using the NCGC unique quantitative screening (qHTS) platform to find activators for EPAC1. In addition, this assay will also be used as a counterscreen for the EPAC2 qHTS. This fluorescent based assay is developed and validated for EPAC1 that measures exchange using EPAC effector Rap1 complex with BODIPY-GDP, a GDP analog with a tethered fluorophores. Activators are identified by monitoring the change in fluorescence signal as the exchanged free BODIPY-GDP has a reduced fluorescence compared to Rap1-bound BODIPY-GDP. Increase in signal (activation) is the desired outcome for the EPAC1 agonist while no activity in this assay is desired for the EPAC2 agonist counterscreen.
[1] de Rooij, J., Zwartkruis, F. J., Verheijen, M. H., Cool, R. H., Nijman, S. M., Wittinghofer, A., and Bos, J.L. (1998) Nature 396, 474-477.
Briefly, three uL of reagents (100 nM EPAC1, 250 nM RAP1B-BODIPY-GDP, 50 uM GDP) were dispensed into a 1536-well Greiner black solid-bottom medium binding assay plate. Controls and test compounds (23 nL) were transferred to the plate via a Kalypsys pin tool equipped with a 1536-pin array. The plates were centrifuged at 1,000 rpm for 15 seconds followed by 5 minute incubation at room temperature. The assay plates were read at 5 minute intervals for 30 minutes in the ViewLux plate reader using 480nm excitation and 540nm emission filters. The results were normalized to the […] positive control ATA and DMSO.
Further: nearly all actives have a fitted effect of over 75% in size.

Activity change, negative = inhibition, inactive:
COC(=O)c1cc(CNC(=O)c2ccccc2OC)cc(NC(=O)c2ccccc2F)c1 -11.5%
O=C(O)C1=CCNCC1
OCc1ccccc1 17.4%
COc1ncc2nc(-c3cccc(C#N)c3)c(=O)n(CCC#N)c2n1 -6.3%
CCn1c(=O)[nH]c2ccccc21 12.6%
CN(C)C(=O)[C@@H]1C[C@@H](Sc2nc3ccccc3[nH]2)CN1Cc1ccnc2ccccc12 13.1%
CC1(C)C2CC[C@]3(C)[C@H](C(=O)C=C4[C@@H]5C[C@@](C)(C(=O)O)CC[C@]5(C)CC[C@]43C)[C@@]2(C)CC[C@@H]1O[C@H]1O[C@H](C(=O)O)[C@@H](O)[C@H](O)[C@H]1O[C@@H]1O[C@H](C(=O)O)[C@@H](O)[C@H](O)[C@H]1O (stereo partly drawn) 9.54%
CN1CCC2(CC1)CCN(C(=O)c1ccncc1)CC2 6.83%
CCOc1ccc(CN2CCOc3ccc(C(O)c4cccnc4)cc3C2)cc1 (stereo not drawn) 8.72%
CC(O)[C@@H](N)C(=O)O (stereo partly drawn) 14.2%
C[C@H](N)C(=O)O 11.2%
CCc1ccccc1N(C)C 22.1%
NCC(O)c1ccc(O)c(O)c1 (stereo not drawn) -11.8% [at 75.8 µM]
COc1cccc(CN2CCC3(CCC(CNC(=O)c4ccco4)O3)CC2)c1OC (stereo not drawn) 4.54%
O=C(NCCO)c1cn(C2CCCN(Cc3cccc(C(F)(F)F)c3)C2)nn1 (stereo not drawn) 9.22%
O=c1ccc2c(OCCCCc3ccccc3)c3ccoc3cc2o1 -9.32% [at 75.8 µM]
Cc1cccc2c(N3CCCC3)nc(CNS(=O)(=O)c3ccc4ccccc4c3)nc12 -2.47%
Cn1cc(-c2nc3cncnc3n(C3CC3)c2=O)c2ccccc21 11.2%
O=C(c1cccc(F)c1)N1CCC[C@@]2(CCN(Cc3ccncc3)C2)C1 11.1%
CCn1cc(C(=O)O)c(=O)c2cc(F)c(N3CCNC(C)C3)c(F)c21 (stereo not drawn)
COc1ccc(CN2C[C@H](Cc3ccccc3)[C@@H](CC(=O)Nc3ccccc3)C2=O)cc1 3.61%
NC(=O)c1cc[n+](CC2=C(C(=O)O)N3C(=O)[C@@H](NC(=O)C(c4ccccc4)S(=O)(=O)[O-])[C@H]3SC2)cc1 (stereo partly drawn) -3.23% [at 75.8 µM]
COCCn1c(=O)c(-c2ccc(Cl)cc2)nc2cnc(N3CCOCC3)nc21 23.6%
CS(=O)(=O)Nc1ccc([N+](=O)[O-])cc1Oc1ccccc1
COc1cc(C)nc(-n2nc(C)cc2OC)n1 18.8% [at 75.8 µM]
CCOC(=O)CCC(=O)O[C@H]1[C@H](O[C@@H]2[C@@H](C)[C@H](O[C@H]3C[C@@](C)(OC)[C@@H](O)[C@H](C)O3)[C@@H](C)C(=O)O[C@H](CC)[C@@](C)(O)[C@H](O)[C@@H](C)C(=O)[C@H](C)C[C@@]2(C)O)O[C@H](C)C[C@@H]1N(C)C 14.8%
CCCCCCCCCCCCC/C=C\[C@@H](O)[C@@H](N)CO -2.06%
CCCCCCCCCCCCCCCCCCN(CCCCCCCCCCCCCCCCCC)c1ccc(/C=C/c2ccc(C=O)cc2)cc1 6.62%
Nc1ccc(C(=O)Nc2ccccc2N)cc1 3.53%
C[C@](N)(C(=O)O)c1ccc(-c2nn[nH]n2)cc1 -12.1%
COc1ccc2[nH]cc(CCNc3ncncc3-c3ccoc3)c2c1 -17.4%
Cc1ccccc1-n1cc(CNC(=O)CN2Cc3ccccc3OC(C)C2)cn1 (stereo not drawn) 1.56%
COc1cccc(C2(CC(=O)N3CCC(c4nc5ccccc5o4)CC3)CC(=O)N(C)C2=O)c1 (stereo not drawn) 7.68%
CN(Cc1ccco1)c1ncnc2ccc(-c3cccnc3)cc12 -9.15%
CC(=O)c1ccccc1-c1ccc2c(c1)CC(CNC(=O)Cc1c[nH]c3ccccc13)O2 (stereo not drawn) 5.91%
Nc1ncnc2nc(-c3ccc(N4CCOCC4)nc3)cc(-c3cccc(Br)c3)c12 -1.94% [at 75.8 µM]
C[C@]12C=CC(=O)C=C1CC[C@@H]1[C@@H]2C(=O)C[C@@]2(C)[C@H]1CC[C@]2(O)C(=O)CO 13.5%
C=CCn1c(=O)n([C@@H]2O[C@H](CO)[C@@H](O)[C@H]2O)c2nc(N)[nH]c(=O)c21 11.5%
O=C1CCN(Cc2ccc(Br)cc2)CCN1[C@H](CO)c1ccccc1 -20.5%
CN(C)C(=O)c1ccc(-c2nccc(NCc3ccccc3)n2)cc1 16.6%
C[C@]12C=CC(=O)C=C1CC[C@@H]1C2=CC[C@]2(C)[C@@H](C(=O)CN3CCN(c4cc(N5CCCC5)nc(N5CCCC5)n4)CC3)CC[C@@H]12 2.13% [at 75.8 µM]
CC(C)[C@@H]1NC(=O)[C@H](Cc2ccccc2)NC(=O)[C@@H](CC(=O)O)NC(=O)CNC(=O)[C@H](CCCNC(=N)N)NC1=O 22.4%
COc1ccccc1-c1nccc(NCc2cccc(C)c2)n1 18.2%
CN(C)C(=O)c1ccc(-c2cncnc2Nc2ccc(F)cc2)cc1 7.82%
COc1ccccc1CNc1ccnc(-c2cccnc2)n1 -1.54%
CN1CCN(C2=Nc3ccccc3Sc3ccc(Cl)cc32)CC1
O=C(O)c1cc(=O)c2c3nc4ccccc4oc-3cc(=O)c2[nH]1 -10.9%
CC1(C)[C@@H](O[C@H]2O[C@H](C(=O)O)[C@@H](O)[C@H](O)[C@H]2O[C@@H]2O[C@H](C(=O)O)[C@@H](O)[C@H](O)[C@H]2O)CC[C@]2(C)[C@H]3C(=O)C=C4[C@@H]5C[C@@](C)(C(=O)O)CC[C@]5(C)CC[C@@]4(C)[C@]3(C)CC[C@@H]12 18.7%
CO[C@H]1C[C@H](O[C@H]2[C@H](C)[C@@H](O[C@@H]3O[C@H](C)C[C@H](N(C)C)[C@H]3OC(C)=O)[C@@H](C)C[C@]3(CO3)C(=O)[C@H](C)[C@@H](OC(C)=O)[C@@H](C)[C@@H](C)OC(=O)[C@@H]2C)O[C@@H](C)[C@@H]1OC(C)=O -9.82% [at 75.8 µM]
COc1ccc2oc(-c3ccc(O)cc3)cc(=O)c2c1 9.89%
CCOC(=O)N1CCN(Cc2ccc3c(c2)CN(C(=O)c2cccc(-n4cccn4)c2)CCO3)CC1 5.74%
COc1ccc(-n2c(=O)c(-c3ccccc3)nc3cnc(N4CCN(C)CC4)nc32)cc1 10.7%
COc1cc(-c2cnc3ccccc3c2)cc2c1OCCN(C(=O)CCC(=O)c1ccc(F)cc1)C2 22.4%
O=C(N/N=C/c1ccccc1O)c1ccncc1 7.33%
C[C@@H]1CN(c2c(F)c(N)c3c(=O)c(C(=O)O)cn(C4CC4)c3c2F)C[C@H](C)N1 5.64%
O=c1n(CC2CO2)c(=O)n(CC2CO2)c(=O)n1CC1CO1 (stereo not drawn) 12%
Cn1c(=O)c2[nH]c(-c3ccc(S(=O)(=O)O)cc3)nc2n(C)c1=O
C[C@@H]1O[C@@H]1P(=O)(O)O -5.33%
Cn1cccc1C(=O)N1CCC2(CCCN(c3ncccn3)C2)CC1 6.68%
COc1cc(-c2c(-c3ccc4c(c3)OCO4)noc2C)ccc1F 1.48%
O=c1c(-c2ccc(F)c(F)c2)nc2cncnc2n1Cc1ccccc1Cl 7.86%
FC(F)(F)c1cc(CO[C@H]2CCCN[C@H]2c2ccccc2)cc(C(F)(F)F)c1 -3.45%
Cc1ccc(S(=O)(=O)NCl)cc1 16.9%
Nc1ccc(C=O)cc1 0.426%
COc1ccc(Oc2ncc3nc(-c4cn(C)c5ccccc45)c(=O)n(C)c3n2)cc1 -15%
CCC(=O)N[C@@H]1CCc2cccc(OC)c2C1 -11.3%
C/C(=C\CO)CCC(C)CCCC(C)CCCC(C)C (stereo not drawn) -14%
O=C(c1ccco1)N1CCC[C@@]2(CCN(c3cccc(-c4ccccc4)c3)C2)C1 4.7%
OCC1=CC[N+]2(Cc3ccccc3)CCC(O)[C@@H]12 (stereo partly drawn) 14.4%
COc1cccc(Nc2ncc3nc(-c4ccccc4)c(=O)n(C)c3n2)c1 30.8%
O=C(c1ccco1)N1CCC2(CC1)CCN(c1ccccn1)CC2 8.23%
COC(=O)[C@@H]1CCCN1S(=O)(=O)Cc1ccccc1 11.3%
CCN1CCCC1CNC(=O)c1cnn(-c2nccc(-c3ccccc3F)n2)c1C (stereo not drawn) 2.85%
CCCCO 26.9%
C=C1C2CC[C@@]3(C)C(c4ccoc4)OC(=O)C[C@@]13OC1CC(=O)C(C)(C)C(C(O)C(=O)OC)[C@]12C (stereo partly drawn) 4.44%
O=c1c(-c2cccs2)nc2cncnc2n1Cc1ccccc1 22.1%
COc1ccc(Oc2ncc3nc(-c4cccs4)c(=O)n(CCC#N)c3n2)cc1 4.99%
CCCCC(=O)Oc1ccccc1C(=O)O 1.66%
CC[C@]12CCCN3CCc4c(n(c5ccccc45)C(=O)C1)[C@@H]32 10.8% [at 75.8 µM]
C[C@@H]1CCC(=O)N(CC[C@H](Oc2ccccc2)c2ccccc2)CC1 0.915%
CC(N)(C(=O)O)c1ccc(C(=O)O)cc1 (stereo not drawn)
CC(=O)OCOC(c1ccc2ccccc2c1)P(=O)(OCOC(C)=O)OCOC(C)=O (stereo not drawn) 17.1% [at 201 µM]
CN1CCc2cccc3c2C1Cc1ccc(O)c(O)c1-3 (stereo not drawn)
CC#CCOC(=O)c1c(C)nc2sc3c(c2c1N)CCC(O)C3 (stereo not drawn) 11.6% [at 75.8 µM]
COC(=O)C1CCN(Cc2ccc3c(c2)CN(C(=O)c2cc(C)oc2C)CCO3)CC1 3.32%
O=C(Nc1cccc(F)c1)N1CCCC2(CCN(C(=O)c3cnccn3)CC2)C1 17%
CCOc1ccccc1CN1CCCC(c2nc(C)ncc2-c2ccc(F)cc2)C1 (stereo not drawn) 5.12%
COc1ccccc1C1CN(Cc2ccccc2O)Cc2ccccc2O1 (stereo not drawn) 0.157%
CC(N)(COP(=O)(O)O)C(=O)O (stereo not drawn) 18.2%
COc1ccc(-c2ccnc(-n3ncc(C(=O)NCc4cccnc4)c3C3CC3)n2)cc1F 5.56%
NC(=O)c1sc(-c2ccsc2)cc1N 14.6%
COc1ccc(/C=C/C(=O)N2CCc3c(cnc(C)c3CNC(=O)c3ccsc3)C2)cc1OC 8.3%
COc1ccccc1CNc1ccnc(-c2ccccc2Cl)n1 -19.3%
CCCCCCCCCCC(C)(C)C(=O)Nc1c(OC)cc(OC)cc1OC -8.27% [at 75.8 µM]
CN=C(N)NCCC[C@H](N)C(=O)O
CC(=O)NCCNc1ncnc2ccc(-c3ccccc3C(F)(F)F)cc12 5.62%
COc1ccc(F)c(CN2CCOc3ccc(CN4CCC(O)(c5cccnc5)CC4)cc3C2)c1 10.4%
COc1cc(OC)c(/C=C2/C(=O)Nc3ccccc32)c(OC)c1 14.5% [at 75.8 µM]
